# Source: PMC12820563
# This is one part of the list. The list includes weakly bound sequences.
# Biological target: T1, MBP-FoxP3dN (UniProt Q99JB6)
# T1 sequence: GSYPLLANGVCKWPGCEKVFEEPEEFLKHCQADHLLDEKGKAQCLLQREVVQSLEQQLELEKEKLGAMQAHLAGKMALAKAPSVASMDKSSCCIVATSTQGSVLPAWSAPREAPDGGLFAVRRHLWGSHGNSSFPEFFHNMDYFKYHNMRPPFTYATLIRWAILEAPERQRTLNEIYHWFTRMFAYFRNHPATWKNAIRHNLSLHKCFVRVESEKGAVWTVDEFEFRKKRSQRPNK
# Experiment: PD-seq (MBP pull-down with sequencing)
# Details: 20 mM Tris-HCl pH 7.5, 100 mM NaCl, 1.5 mM MgCl2, 0.4 uM protein, 0.1 uM dsDNA library, 30 min, room temperature, amylose pull-down; high values mean tight binding; double strand, one strand shown
row,Sequence,binding signal (RPM ratio (pull-down/input))
1,GATGATTGTTCTCCCAGCTGATGAATTTTACAGTTCGAGTAAACAAATTTTCCTAATCTTTCTGTTCAAGCGCCATCTAC,0.334
2,GATGATTGTTCTCCCAGCTGATGAATTTCCGTCTTCGAGTAAACAAATTTTCCTAATCTTTCTGTTCAAGCGCCATCTAC,0.426
3,GATGATTGTTCTCCCAGCTGATGAATTAAAATATTCGAGTAAACAAATTTTCCTAATCTTTCTGTTCAAGCGCCATCTAC,0.441
4,GATGATTGTTCTCCCAGCTGATGAATTTAAAACATCGAGTAAACAAATTTTCCTAATCTTTCTGTTCAAGCGCCATCTAC,0.573
5,GATGATTGTTCTCCCAGCTGATGAATTAAATGTATCGAGTAAACAAATTTTCCTAATCTTTCTGTTCAAGCGCCATCTAC,1.12
6,GATGATTGTTCTCCCAGCTGATGAATTATCATTTTCGAGTAAACAAATTTTCCTAATCTTTCTGTTCAAGCGCCATCTAC,0.575
7,GATGATTGTTCTCCCAGCTGATGAATTCCATGGGTCGAGTAAACAAATTTTCCTAATCTTTCTGTTCAAGCGCCATCTAC,0.335
8,GATGATTGTTCTCCCAGCTGATGAATTACAGGCGTCGAGTAAACAAATTTTCCTAATCTTTCTGTTCAAGCGCCATCTAC,0.779
9,GATGATTGTTCTCCCAGCTGATGAATTTAAGAATTCGAGTAAACAAATTTTCCTAATCTTTCTGTTCAAGCGCCATCTAC,0.586
10,GATGATTGTTCTCCCAGCTGATGAATTCACAAGCTCGAGTAAACAAATTTTCCTAATCTTTCTGTTCAAGCGCCATCTAC,0.292
11,GATGATTGTTCTCCCAGCTGATGAATTTCGAGCATCGAGTAAACAAATTTTCCTAATCTTTCTGTTCAAGCGCCATCTAC,0.806
12,GATGATTGTTCTCCCAGCTGATGAATTAGTTCTATCGAGTAAACAAATTTTCCTAATCTTTCTGTTCAAGCGCCATCTAC,0.416
13,GATGATTGTTCTCCCAGCTGATGAATTCATCATCTCGAGTAAACAAATTTTCCTAATCTTTCTGTTCAAGCGCCATCTAC,1.24
14,GATGATTGTTCTCCCAGCTGATGAATTGAGGGCGTCGAGTAAACAAATTTTCCTAATCTTTCTGTTCAAGCGCCATCTAC,0.482
15,GATGATTGTTCTCCCAGCTGATGAATTTCAATTCTCGAGTAAACAAATTTTCCTAATCTTTCTGTTCAAGCGCCATCTAC,0.544
16,GATGATTGTTCTCCCAGCTGATGAATTTGGTCTTTCGAGTAAACAAATTTTCCTAATCTTTCTGTTCAAGCGCCATCTAC,0.63

row,Sequence,binding signal (RPM ratio (pull-down/input))
1,GATGATTGTTCTCCCAGCTGATGAATTTCACAACTCGAGTAAACAAATTTTCCTAATCTTTCTGTTCAAGCGCCATCTAC,0.373
2,GATGATTGTTCTCCCAGCTGATGAATTAAATTTCTCGAGTAAACAAATTTTCCTAATCTTTCTGTTCAAGCGCCATCTAC,0.664
3,GATGATTGTTCTCCCAGCTGATGAATTGTACGTATCGAGTAAACAAATTTTCCTAATCTTTCTGTTCAAGCGCCATCTAC,0.769
4,GATGATTGTTCTCCCAGCTGATGAATTGCATTAATCGAGTAAACAAATTTTCCTAATCTTTCTGTTCAAGCGCCATCTAC,1.69
5,GATGATTGTTCTCCCAGCTGATGAATTTCTGGTTTCGAGTAAACAAATTTTCCTAATCTTTCTGTTCAAGCGCCATCTAC,0.411
6,GATGATTGTTCTCCCAGCTGATGAATTGCATCTTTCGAGTAAACAAATTTTCCTAATCTTTCTGTTCAAGCGCCATCTAC,5.4
7,GATGATTGTTCTCCCAGCTGATGAATTAAACACATCGAGTAAACAAATTTTCCTAATCTTTCTGTTCAAGCGCCATCTAC,0.785
8,GATGATTGTTCTCCCAGCTGATGAATTAATGAACTCGAGTAAACAAATTTTCCTAATCTTTCTGTTCAAGCGCCATCTAC,0.287
9,GATGATTGTTCTCCCAGCTGATGAATTGACCACTTCGAGTAAACAAATTTTCCTAATCTTTCTGTTCAAGCGCCATCTAC,0.403
10,GATGATTGTTCTCCCAGCTGATGAATTGAGATTGTCGAGTAAACAAATTTTCCTAATCTTTCTGTTCAAGCGCCATCTAC,1.08
11,GATGATTGTTCTCCCAGCTGATGAATTGCATTCATCGAGTAAACAAATTTTCCTAATCTTTCTGTTCAAGCGCCATCTAC,4.9
12,GATGATTGTTCTCCCAGCTGATGAATTTCTGATGTCGAGTAAACAAATTTTCCTAATCTTTCTGTTCAAGCGCCATCTAC,0.407
13,GATGATTGTTCTCCCAGCTGATGAATTACGGTTTTCGAGTAAACAAATTTTCCTAATCTTTCTGTTCAAGCGCCATCTAC,0.844
14,GATGATTGTTCTCCCAGCTGATGAATTCGATGGTTCGAGTAAACAAATTTTCCTAATCTTTCTGTTCAAGCGCCATCTAC,2.35
15,GATGATTGTTCTCCCAGCTGATGAATTCTAGCCTTCGAGTAAACAAATTTTCCTAATCTTTCTGTTCAAGCGCCATCTAC,1.89
16,GATGATTGTTCTCCCAGCTGATGAATTTAACAAATCGAGTAAACAAATTTTCCTAATCTTTCTGTTCAAGCGCCATCTAC,0.242
